Data published in the supplement of paper PMC3334620.
Over roughly 33,000 sequences, “E-score (-0.5 to 0.5)” has its median near -0.036; the highest 2% begin near 0.37. The list shows a part of the results.

Molecular target: T1, Yer064c (UniProt P40041)
T1 sequence: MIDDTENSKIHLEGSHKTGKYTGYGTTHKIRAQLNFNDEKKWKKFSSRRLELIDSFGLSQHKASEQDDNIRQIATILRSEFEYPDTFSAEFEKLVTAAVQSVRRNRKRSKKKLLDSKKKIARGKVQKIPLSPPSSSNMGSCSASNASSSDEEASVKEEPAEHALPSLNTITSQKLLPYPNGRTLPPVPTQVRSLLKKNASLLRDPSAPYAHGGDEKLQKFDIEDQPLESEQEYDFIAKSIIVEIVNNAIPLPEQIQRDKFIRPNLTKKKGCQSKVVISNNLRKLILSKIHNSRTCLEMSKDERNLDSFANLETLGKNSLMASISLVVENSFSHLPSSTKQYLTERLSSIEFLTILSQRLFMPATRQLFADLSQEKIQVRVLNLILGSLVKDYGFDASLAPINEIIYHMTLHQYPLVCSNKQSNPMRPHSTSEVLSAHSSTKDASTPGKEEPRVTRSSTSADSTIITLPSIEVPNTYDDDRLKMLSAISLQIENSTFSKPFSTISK
Assay: PBM E-score (8-mer binding enrichment) (E-score (-0.5 to 0.5)); higher = stronger / more preferred TF binding; most listed sequences are background and not binding sites
Settings: protein concentration: 200 nM; construct: GST-full length
Outline: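 GST-tagged yeast TFs (full-length or DNA-binding domain) were made by PURExpress in vitro transcription/translation and applied at about 100-200 nM to universal all-10-mer Agilent arrays. The arrays were made double-stranded by primer extension, on fresh or once-stripped slides. Bound protein was detected with fluorescent anti-GST, and scans were normalised with masliner. Each ungapped eight-base word, pooled with its reverse complement, received an E-score (modified Wilcoxon-Mann-Whitney statistic) from the Universal PBM Analysis Suite.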

Sequence	PBM E-score
CGCACAAA	0.123
AGGGTACT	-0.144
ATCCAGCG	-0.21
CTAGTATA	0.166
GCACCGTA	0.0368
AACTACAA	0.0121
AGTTCCGG	-0.181
GCCTTACC	-0.193
GAAGCCTC	-0.255
TGAGTCCA	0.397
AATGATGT	0.0164
GGTGCGGA	-0.0362
AGCAACGA	0.0795
ACCCTGAA	-0.0133
ATTCATGC	0.137
GTTCGCTA	0.117
GAGCAGGA	-0.0527
GGGGCACA	-0.185
GGCAAGAA	-0.117
GATACGCA	0.0642
GTTCTTTA	-0.0184
ACACAGTG	0.0554
TAAGAACA	0.0509
GATCAACC	-0.0918
ATTGAGGA	0.0891

Sequence	PBM E-score
AAGGGTGG	0.0597
AGCCACCA	0.131
ATATATAG	0.133
TCTAATAA	0.115
ACGTATGC	-0.151
CTGGGATA	-0.163
AATGATGA	0.289
TCGTTTAA	0.249
AGAATTTA	-0.16
TCGCGACA	0.117
AAGCATGA	0.119
CCAGGGGA	-0.158
CTTACCGA	-0.0159
GGCGATAC	-0.0183
TCGCAAAA	0.14
TCGCTCAA	0.0645
ATATCATC	-0.113
CTAAACCA	0.0559
AATGTGAA	0.0875
ACGGATTA	0.1
TCGTACCA	0.0567
ACTGCGCT	-0.00241
CCAGTCTC	-0.00302
CCACCACG	-0.101
GCCAAGCC	-0.289

Sequence	PBM E-score
AACCTCAC	-0.134
ACTCTGGA	0.159
CCTAGAAG	-0.198
CTGAATTC	-0.0448
ATGTTCCA	-0.0954
AGGCTTCA	-0.213
ACTGGAGG	-0.183
AGATAGTG	0.0368
GCCGCGCC	-0.148
GCTACCAA	-0.00248
AAAGCCTG	-0.0222
GCGTTGCA	-0.0751
TAGGCCTA	-0.0347
GCCTCGAA	-0.196
ATAGGGAC	-0.137
AATGAAAA	0.0679
AATGGTGG	-0.237
ACTGTCGG	0.00864
AGACTGTA	0.0873
ATCACGTC	0.049
AGGTTATC	-0.22
CCGTCCAC	-0.174
TCCTGAAA	-0.134
GTGGCGCA	-0.231
CTACGATA	-0.0194

Sequence	PBM E-score
CCTATTCC	-0.165
ATAAAAGA	-0.0767
GCTCTAAA	-0.062
GCGTCGGA	-0.057
AGATCGGG	-0.188
AGGTTCGA	-0.0448
AATGATTG	0.358
ACAAAGCC	-0.117
TAAACACA	0.162
AGGATCCG	-0.3
ATGTCAAC	-0.0839
AGTCGGAA	0.318
TCCAGCAA	0.0178
GGGTGACA	-0.103
AGCAGAAT	0.0596
CGGTTTAG	-0.1
AGGGAACT	-0.156
GCTATGGA	-0.0809
GACGGACC	-0.147
ATGAATAA	0.119
CGCGCATC	-0.131
CTCCTTCC	-0.0954
ACGCAGAT	0.0138
ATCTGGGA	-0.204
CAAGGGCG	-0.197

Sequence	PBM E-score
CAAGATTC	0.163
CTGCTTGA	6e-05
ACGCTTGG	-0.234
ATATATGC	-0.207
GAATCAGA	0.402
AGATAGAC	0.0882
AGCTAACT	0.0295
ACAGTATC	-0.24
AGTCAAGC	0.358
ACGCGCCA	-0.308
CGATGGTA	-0.104
CAAAGGAC	0.0351
ATTTTTAA	0.101
GCAACACC	-0.05
CCACCCAA	-0.165
GACGATGC	-0.0834
AATAACGG	-0.0446
TCGCGAGA	0.0767
AGCTACGG	-0.0957
GCCGTTAC	-0.0578
ATAAGGAG	0.0799
CTCCTGTC	0.128
GGTGGCAC	-0.381
CTCCATCA	0.089
AATGGGCA	-0.238

Sequence	PBM E-score
CGAAACCG	-0.08
CAACTATC	0.0162
GCCACAGA	-0.241
AAAAATGA	0.218
CAACAAGG	0.0353
CTGTGCAC	-0.129
CGCGCAAA	-0.0184
AAGGGCCA	-0.0545
TCCACTAA	0.0132
CTGGGTAA	0.133
ATAACATA	-0.0209
ACTGCGTA	0.0638
CGCCCGAG	-0.0276
ACTCCTAA	0.156
AATGGCCA	-0.195
ACCCCGAT	-0.266
AGCTTTCA	-0.0821
GGTTGGAC	-0.139
CGACGGTC	-0.21
AAGTGCTA	-0.0513
AGCGTCGA	-0.102
CAAACAGC	0.0295
CACCTTGC	-0.0602
CAAACAAA	0.0284
AAGGGAGA	0.039

Sequence	PBM E-score
TGGCTACA	0.195
CTCATCAC	0.041
GATCATGA	0.288
GCTGCATA	0.0688
TCCGGTCA	-0.00307
AATGTGCT	-0.00735
AGGGCCTA	-0.317
ACGCTTTC	-0.198
CTGGCATC	-0.242
AAGGTATC	-0.193
CTGGCGTA	-0.0778
CTATGGTC	0.0987
AATCCGCA	0.144
ATACACGC	-0.0268
ATCGGGTG	-0.0828
CTGCCCCA	-0.11
GAAACTAA	0.0454
GCTATGAA	-0.00466
GTCCAGTA	-0.158
ATTGTACG	0.103
AACACAAT	0.175
CACTACTG	-0.0157
